The text below walks through data of patent EP2330125A2 (priority 2005, dated 2007).

The assay is classed as in vivo, NIH/Swiss mice. The conditions noted are these: Dose 25 nmol/Kg.

Regarding “KCNTATCATQRLANFLVRSSNNLGPVLPPTNVGSNTY [rat amylin]”, the “Mouse Food Intake, % BASAL 180 min” value is on record as -35.5 % BASAL.
